At least one compound was matched to its structure with a doubt left.
Each compound was assayed on TBPS site of GABA-A receptor (assay: GABA-A receptor (TBPS site) binding assay, [35S]TBPS). Details: 100 μM; rat brain membranes, 2 nM [35S]TBPS.
Method: Compounds of the inventions were tested for specific binding to TBPS (t-butyl bicyclophosphorothionate) site, an allosteric modulator site of GABA-A receptor as modified from G. Maksay and M. Simonyi, Eur. J. Pharmacol. 1985, 117(2), 275. and Gee, K. W. et al., J. Pharm. Exp. Ther. 1988, 246, 803.
This binding assay was performed using [35S] TBPS as radioligand in washed crude membrane homogenate from rat brains. Membrane preparations were carried out according to procedure described below. Sprague-Dawley (SD) rat weighting 230 g were killed by decapitation and their whole brains were rapidly removed and its cerebellums were excluded. The dissected brains were homogenized for 30 sec in 10 volumes (W/V) of ice-cold 0.32 M Sucrose and 50 mM Tris-citrate buffer pH 7.4 using glass homogenate. The homogenate was centrifuged at 2,000×g for 5 min at 4° C. And the supernatant re-centrifuged at 50,000×g for 20 min at 4° C. The supernatant was discarded and the resulting pellets were resuspended in 10 volumes (W/V) of ice-cold 50 mM Tris-citrate buffer pH 7.4. And then the suspended pellet was centrifuged at 50,000×g for 20 min at 4° C. The resulting pellets were suspended again in 32 volumes (W/V) of ice-cold 50 mM Tris-citrate buffer pH 7.4 with 0.05% Triton X-100 and then incubated in 37° C. for 60 min using a water bath. The incubated suspension was centrifuged at 50,000×g for 20 min at 4° C. Resuspending and centrifugation step of the remained pellets were repeated twice at the same manner and final pellets were resuspended in 10 volumes (W/V) of ice-cold 50 mM Tris-citrate buffer pH 7.4 to enable distribution of 2 ml aliquot in microcentrifuge tube, which were used immediately or kept at −80° C. for no more than 1 month before use.
For TBPS site binding assay, 50 μl of the tested compound were added to 100 μg membrane protein suspended in 0.15 ml of 50 mM Tris-citrate buffer with 200 mM NaCl pH 7.4 in presence of 2 nM of [35S] TBPS. The incubation of mixtures were carried out for 1.5 hours at 25° C. and then rapidly filtered over Whatman GF/C glass fiber filters, followed by twice 4.5 ml rinses with ice-cold incubation buffer. The filters were placed in counting vials and 4 ml scintillation solution. The vials were counted in a Beckman scintillation counter. Non-specific binding was determined in parallel incubations with 100 μM picrotoxin.
IC50 values for TBPS site binding assay was calculated using Graphpad PRISM v.3.00.

SMILES | TBPS Inhibition % (At 100 μM) [%]
NC(=O)OC(Cn1nccn1)c1ccccc1 (stereo not drawn) [Example 7, Carbamic acid 1-phenyl-2-[1,2,3]triazol-2-yl-ethyl ester] | 3.5
NC(=O)O[C@H](Cn1ncnn1)c1ccccc1Cl [Example 21, Carbamic acid (S)-1-(2-chloro-phenyl)-2-tetrazol-2-yl-ethyl ester] | 12.6
NC(=O)OC(Cn1ncnn1)c1ccc(Cl)cc1Cl (stereo not drawn) [Example 30, Carbamic acid 1-(2,4-dichloro-phenyl)-2-tetrazol-2-yl-ethyl ester] | 74.9
NC(=O)O[C@@H](Cn1nccn1)c1ccccc1Cl [Example 33, Carbamic acid (R)-1-(2-chloro-phenyl)-2-[1,2,3]triazol-2-yl-ethyl ester] | 48.2
NC(=O)OC(Cn1ncnn1)c1ccc(Cl)c(Cl)c1 (stereo not drawn) [Example 26, Carbamic acid 1-(3,4-dichloro-phenyl)-2-tetrazol-2-yl-ethyl ester] | 66.3
NC(=O)O[C@@H](Cn1ncnn1)c1ccccc1Cl [Example 20, Carbamic acid (R)-1-(2-chloro-phenyl)-2-tetrazol-2-yl-ethyl ester] | 25.1
NC(=O)OC(Cn1nccn1)c1ccc(Cl)cc1 (stereo not drawn) [Example 10, Carbamic acid 1-(4-chloro-phenyl)-2-[1,2,3]triazol-2-yl-ethyl ester] | 35.9
NC(=O)OC(Cn1ncnn1)c1ccccc1 (stereo not drawn) [Example 4, Carbamic acid 1-phenyl-2-tetrazol-2-yl-ethyl ester] | −2.3
NC(=O)OC(Cn1ncnn1)c1ccccc1Cl (stereo not drawn) [Example 2, Carbamic acid 1-(2-chloro-phenyl)-2-tetrazol-2-yl-ethyl ester] | 11.2
NC(=O)OC(Cn1ncnn1)c1ccc(Cl)cc1 (stereo not drawn) [Example 5, Carbamic acid 1-(4-chloro-phenyl)-2-tetrazol-2-yl-ethyl ester] | 14.5
NC(=O)OC(Cn1nccn1)c1ccc(Cl)c(Cl)c1 (stereo not drawn) [Example 25, Carbamic acid 1-(3,4-dichloro-phenyl)-2-[1,2,3]triazol-2-yl-ethyl ester] | 74.8

Same assay, conditions: rat brain membranes, 2 nM [35S]TBPS

SMILES | IC50 [µM]
NC(=O)OC(Cn1nccn1)c1ccc(Cl)cc1Cl (stereo not drawn) [Example 29, Carbamic acid 1-(2,4-dichloro-phenyl)-2-[1,2,3]triazol-2-yl-ethyl ester] | 8.1
